Results as given in PubChem BioAssay (Tox21).
The shares of active, inactive and inconclusive entries below differ from those in the screen. For some assays here: Potencies of inconclusive entries are left out as doubtful fits. Active and inactive are the calls of the source. Unless noted, calls follow the shape of the dose curve; as a rule, active = well fitted curve in the direction sought with a large enough effect in the repeat runs; inconclusive = weak or mixed curves; inactive = no such curve, though single readings can be large; an effect the other way counts as inactive or inconclusive.

Key:
[1] = qHTS assay to identify small molecule that activate the aryl hydrocarbon receptor (AhR) signaling pathway - cell viability counter screen (AID 743086); also: nearly all actives have a fitted effect of over 45% in size; also: potency is read from the fitted curve at half-maximal effect
In short: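 Cytotoxicity counter screen: CellTiter-Fluor signal (30 min, 37 C) in 4000 HepG2 cells/well carrying the DRE-luciferase reporter, following 24 h compound exposure at 37 C.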

[2] = biological target: Peroxisome proliferator-activated receptor gamma (Homo sapiens) (UniProt P37231); experiment: qHTS assay to identify small molecule agonists of the peroxisome proliferator-activated receptor gamma (PPARg) signaling pathway (AID 743094; active = well fitted activation curve with a large enough effect in the signal ratio in the repeat runs, not every such curve was filed as active; inconclusive = weak or mixed curves, or effect the other way; inactive = no such curve, though single readings can be large or run the other way; the % refers to the signal ratio; also: potency is read from the fitted curve at half-maximal effect; as to activation: % is scaled to controls: 0 for no effect and ±100 for the full control effect); conditions: HEK293H PPARg-UAS-bla, beta-lactamase FRET ratio, 17 h; activation: at 57 µM (top of the series) unless noted
In short: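 Compounds dissolved in DMSO were added to PPARg UAS-bla HEK293H cells for 17 h at 37C, and reporter expression was quantified by fluorescence intensity after 1 h with LiveBLAzer B/G FRET substrate.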

[3] = biological target: Peroxisome proliferator-activated receptor gamma (Homo sapiens) (UniProt P37231); experiment: qHTS assay to identify small molecule antagonists of the peroxisome proliferator-activated receptor gamma (PPARg) signaling pathway (AID 743191; calls by dose curve; also: nearly all actives have a fitted effect of over 30% in size; also: potency is read from the fitted curve at half-maximal effect; as to ratio activity, negative = inhibition: % is scaled to controls: 0 for no effect and ±100 for the full control effect); conditions: HEK293H PPARg-UAS-bla, beta-lactamase ratio, antagonist, 17 h; ratio activity, negative = inhibition: at 62.6 µM (top of the series) unless noted
In short: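 Beta-lactamase reporter under UAS control in HEK293H PPARg-bla cells; compound treatment 17 h at 37C. Read-out: fluorescence intensity after 1 h room-temperature incubation with LiveBLAzer B/G FRET substrate.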

[4] = qHTS assay to identify small molecule agonists of the peroxisome proliferator-activated receptor delta (PPARd) signaling pathway - cell viability counter screen (AID 743211); conditions: PPARd-bla HEK293H viability, CellTiter-Glo luminescence, 17 h; activity change, negative = cytotoxicity: at 62.6 µM (top of the series); also: nearly all actives have a fitted effect of over 55% in size; also: potency is read from the fitted curve at half-maximal effect
In short: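 Read-out: CellTiter-Glo luminescence, 30 min RT, measured in the same wells as the beta-lactamase reporter. Cells: GeneBLAzer PPAR delta UAS-bla HEK293H, 3000 cells/well, compound exposure 17 h at 37C.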

[5] = qHTS assay to identify small molecule antagonists of the peroxisome proliferator-activated receptor delta (PPARd) signaling pathway - cell viability counter screen (AID 743213); conditions: PPARd-bla HEK293H viability, CellTiter-Glo luminescence, 17 h; viability change, negative = cytotoxic: at 62 µM (top of the series) unless noted; also: nearly all actives have a fitted effect of over 50% in size; also: potency is read from the fitted curve at half-maximal effect
In short: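 Agonist-stimulated (L165041, 300 nM final) HEK293H PPARd UAS-bla cells are exposed to compounds for 17 h at 37 C, and ATP-based luminescence (CellTiter-Glo) from the same wells reports cytotoxicity.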

[6] = biological target: Vitamin D3 receptor (Homo sapiens) (UniProt P11473); experiment: qHTS assay to identify small molecule antagonists of the vitamin D receptor (VDR) signaling pathway (AID 743223; active = well fitted inhibition curve with a large enough effect in the signal ratio in the repeat runs, not every such curve was filed as active; inconclusive = weak or mixed curves, or effect the other way; inactive = no such curve, though single readings can be large or run the other way; the % refers to the signal ratio; also: potency is read from the fitted curve at half-maximal effect); conditions: VDR-UAS-bla HEK293T, beta-lactamase FRET ratio, 16 h; activity change, negative = inhibition: at 61 µM (top of the series) unless noted
In short: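 Beta-lactamase reporter read-out: FRET substrate fluorescence after 2 h at room temperature, following 16 h exposure of VDR-bla cells to test compound plus 3 nM (final) 1alpha,25-dihydroxyvitamin D3 agonist at 37C.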

[7] = qHTS assay for small molecule activators of the heat shock response signaling pathway (AID 743210; active = well fitted activation curve with a large enough effect in the signal ratio in the repeat runs, with a control signal flat, not every such curve was filed as active; inconclusive = weak or mixed curves; the % refers to the signal ratio; also: potency is read from the fitted curve at half-maximal effect); conditions: HeLa HSE-bla reporter, beta-lactamase ratio, 5 h; activation: at 62.6 µM (top of the series)
In short: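 HeLa HSE-bla cells, overnight plating; cpd in DMSO 5 h, 37 C; LiveBLAzer B/G FRET substrate 2.5 h RT; fluorescence intensity read.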

[8] = biological target: Bile acid receptor (Homo sapiens) (UniProt Q96RI1); experiment: qHTS assay to identify small molecule antagonists of the farnesoid-X-receptor (FXR) signaling pathway (AID 743217; active = well fitted inhibition curve with a large enough effect in the signal ratio in the repeat runs, not every such curve was filed as active; inconclusive = weak or mixed curves, or effect the other way; inactive = no such curve, though single readings can be large or run the other way; the % refers to the signal ratio; also: potency is read from the fitted curve at half-maximal effect); conditions: HEK293T FXR-UAS-bla, beta-lactamase ratio, CDCA-stimulated, 16 h; activity change, negative = inhibition: at 62.6 µM (top of the series) unless noted
In short: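 GeneBLAzer FXR-UAS-bla HEK 293T, CDCA-stimulated (50 uM final). Compound treatment 16 h, 37 °C. Detection: beta-lactamase cleavage of B/G FRET substrate, fluorescence.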

[9] = biological target: Vitamin D3 receptor (Homo sapiens) (UniProt P11473); experiment: qHTS assay to identify small molecule agonists of the vitamin D receptor (VDR) signaling pathway (AID 743222; calls by dose curve; also: potency is read from the fitted curve at half-maximal effect); conditions: HEK293T VDR-UAS-bla, beta-lactamase FRET ratio, 16 h; activation: at 63.5 µM (top of the series) unless noted
In short: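 In VDR-bla cells, compound-induced beta-lactamase expression is quantified by FRET substrate fluorescence. Treatment lasts 16 h at 37C; substrate develops 2 h at room temperature.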

[10] = qHTS assay for small molecule agonists of the antioxidant response element (ARE) signaling pathway (AID 743202; active = well fitted activation curve with a large enough effect in the signal ratio in the repeat runs, not every such curve was filed as active; inconclusive = weak or mixed curves, or effect the other way; inactive = no such curve, though single readings can be large or run the other way; the % refers to the signal ratio; also: potency is read from the fitted curve at half-maximal effect); conditions: HepG2 ARE-bla reporter, beta-lactamase FRET, 16 h; activation: at 73.3 µM (top of the series) unless noted
In short: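 Quantitative high-throughput format in HepG2 cells bearing an integrated ARE-beta-lactamase reporter. Compound exposure lasted 16 h at 37 C, and fluorescence was read 2 h after adding LiveBLAzer B/G substrate at room temperature.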

[11] = qHTS assay for small molecule agonists of the antioxidant response element (ARE) signaling pathway - cell viability counter screen (AID 743203; calls by dose curve; also: potency is read from the fitted curve at half-maximal effect; nearly all actives have a fitted effect of over 55% in size); conditions: ARE-bla HepG2 viability, CellTiter-Glo luminescence, 16 h; viability change, negative = cytotoxic: at 73.3 µM (top of the series)
In short: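 Following 16 hrs of compound treatment at 37C, HepG2 cells with an ARE-controlled beta-lactamase gene were lysed with CellTiter-Glo. Luminescence was read after 30 min at room temperature.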

[12] = biological target: Peroxisome proliferator-activated receptor delta (Homo sapiens) (UniProt Q03181); experiment: qHTS assay to identify small molecule agonists of the peroxisome proliferator-activated receptor delta (PPARd) signaling pathway (AID 743212; calls by dose curve; also: potency is read from the fitted curve at half-maximal effect); conditions: HEK293H PPARd-UAS-bla, beta-lactamase FRET ratio, 17 h; activation: at 62.6 µM (top of the series) unless noted
In short: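 HEK293H PPARd-bla cells; 5 h preincubation 37 C/5% CO2; compound (DMSO) 37 C; LiveBLAzer B/G FRET substrate 2 h RT; fluorescence intensity.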

[13] = qHTS assay to identify small molecule agonists of the farnesoid-X-receptor (FXR) signaling pathway - cell viability counter screen (AID 743218); conditions: FXR-bla HEK293T viability, CellTiter-Glo luminescence, 16 h; viability change, negative = cytotoxic: at 62.6 µM (top of the series) unless noted; also: nearly all actives have a fitted effect of over 45% in size; also: potency is read from the fitted curve at half-maximal effect
In short: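 Parallel cytotoxicity test: compound-treated (16 h, 37 C) HEK 293T FXR-bla reporter cells were lysed with CellTiter-Glo and luminescence recorded.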

[14] = qHTS assay for small molecule activators of the heat shock response signaling pathway - cell viability counter screen (AID 743209); conditions: HSE-bla HeLa viability, CellTiter-Glo luminescence, 5 h; activity change, negative = cytotoxicity: at 62.6 µM (top of the series); also: potency is read from the fitted curve at half-maximal effect; nearly all actives have a fitted effect of over 50% in size
In short: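 Readout: CellTiter-Glo luminescence, 30 min at room temperature. System: HSE-bla HeLa cells, 1500/well, plated overnight. Treatment: compounds in DMSO, 5 h at 37 C.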

[15] = biological target: Bile acid receptor (Homo sapiens) (UniProt Q96RI1); experiment: qHTS assay to identify small molecule agonists of the farnesoid-X-receptor (FXR) signaling pathway (AID 743220; active = well fitted activation curve with a large enough effect in the signal ratio in the repeat runs, not every such curve was filed as active; inconclusive = weak or mixed curves, or effect the other way; the % refers to the signal ratio; also: % is scaled to controls: 0 for no effect and ±100 for the full control effect); conditions: HEK293T FXR-UAS-bla, beta-lactamase FRET ratio, 16 h; activation: at 62.6 µM (top of the series) unless noted
In short: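 Beta-lactamase reporter under UAS control in GeneBLAzer FXR HEK 293T cells (5000/well) measured with LiveBLAzer FRET substrate after 2 h at room temperature. Compound exposure lasted 16 h at 37C.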

[16] = biological target: Peroxisome proliferator-activated receptor delta (Homo sapiens) (UniProt Q03181); experiment: qHTS assay to identify small molecule antagonists of the peroxisome proliferator-activated receptor delta (PPARd) signaling pathway (AID 743215; active = well fitted inhibition curve with a large enough effect in the signal ratio in the repeat runs, not every such curve was filed as active; inconclusive = weak or mixed curves, or effect the other way; inactive = no such curve, though single readings can be large or run the other way; the % refers to the signal ratio; also: % is scaled to controls: 0 for no effect and ±100 for the full control effect); conditions: HEK293H PPARd-UAS-bla, beta-lactamase FRET ratio, antagonist, 17 h; ratio activity, negative = inhibition: at 62 µM (top of the series) unless noted
In short: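 HEK293H UAS-bla, PPARd; agonist L165041 300 nM final with cpd in DMSO; 37 C 17 h; FRET substrate, RT 2 h; fluorescence intensity.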

[17] = qHTS assay to identify small molecule antagonists of the peroxisome proliferator-activated receptor gamma (PPARg) signaling pathway - cell viability counter screen (AID 743194); conditions: PPARg-bla HEK293H viability, CellTiter-Glo luminescence, 17 h, co-treated with 50 nM rosiglitazone; activity change, negative = cytotoxicity: at 62.6 µM (top of the series); also: potency is read from the fitted curve at half-maximal effect; nearly all actives have a fitted effect of over 55% in size
In short: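 Viability was measured as CellTiter-Glo luminescence in GeneBLAzer PPARg UAS-bla HEK293H cells. These cells had been exposed 17 h at 37 C to compounds together with rosiglitazone at 50 nM final, with the beta-lactamase readout taken in the same wells.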

[18] = qHTS assay to identify small molecule antagonists of the farnesoid-X-receptor (FXR) signaling pathway - cell viability counter screen (AID 743221; active = well fitted cell-killing curve with a large enough effect in the repeat runs, not every such curve was filed as active; inconclusive = weak or mixed curves, or effect the other way; inactive = no such curve, though single readings can be large or run the other way; also: potency is read from the fitted curve at half-maximal effect; nearly all actives have a fitted effect of over 50% in size); conditions: FXR-bla HEK293T viability, CellTiter-Glo luminescence, 16 h; activity change, negative = cytotoxicity: at 62.6 µM (top of the series)
In short: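 HEK 293T FXR-bla cells, 5 h pre-incubation; compound + CDCA 50 uM final, 16 h, 37 C; beta-lactamase FRET read first, then CellTiter-Glo luminescence, 30 min RT.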
Tags tell the direction and shape of the fitted curve or compound fluorescence and quenching.

Chain of UniProt P37231 (P37231 whole entry, looked up): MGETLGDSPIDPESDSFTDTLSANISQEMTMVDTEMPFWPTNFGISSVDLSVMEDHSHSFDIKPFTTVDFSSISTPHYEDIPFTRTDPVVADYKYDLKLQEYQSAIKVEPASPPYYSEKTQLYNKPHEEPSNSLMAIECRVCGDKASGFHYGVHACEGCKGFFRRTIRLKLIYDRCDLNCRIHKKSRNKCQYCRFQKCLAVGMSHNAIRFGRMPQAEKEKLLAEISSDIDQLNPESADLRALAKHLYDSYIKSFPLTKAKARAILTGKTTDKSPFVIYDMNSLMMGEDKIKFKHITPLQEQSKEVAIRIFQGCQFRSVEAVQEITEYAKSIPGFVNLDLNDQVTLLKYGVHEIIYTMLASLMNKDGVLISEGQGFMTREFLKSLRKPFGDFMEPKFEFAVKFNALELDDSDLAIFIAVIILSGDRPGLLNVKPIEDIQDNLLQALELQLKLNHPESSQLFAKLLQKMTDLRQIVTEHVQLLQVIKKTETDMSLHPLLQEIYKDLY
Chain of UniProt Q03181 (Q03181 whole entry, looked up): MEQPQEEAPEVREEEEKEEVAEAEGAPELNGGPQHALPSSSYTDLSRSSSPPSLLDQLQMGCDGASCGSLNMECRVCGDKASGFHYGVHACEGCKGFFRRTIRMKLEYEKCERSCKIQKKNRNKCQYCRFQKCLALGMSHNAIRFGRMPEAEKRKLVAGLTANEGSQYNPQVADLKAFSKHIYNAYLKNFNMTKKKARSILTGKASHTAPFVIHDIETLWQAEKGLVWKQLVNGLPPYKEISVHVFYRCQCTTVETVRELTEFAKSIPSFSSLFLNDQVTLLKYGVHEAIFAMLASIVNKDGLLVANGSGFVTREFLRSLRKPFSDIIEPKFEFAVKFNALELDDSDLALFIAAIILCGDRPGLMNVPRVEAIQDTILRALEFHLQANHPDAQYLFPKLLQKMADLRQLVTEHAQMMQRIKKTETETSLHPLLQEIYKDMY
Chain of UniProt Q96RI1 (Q96RI1 whole entry, looked up): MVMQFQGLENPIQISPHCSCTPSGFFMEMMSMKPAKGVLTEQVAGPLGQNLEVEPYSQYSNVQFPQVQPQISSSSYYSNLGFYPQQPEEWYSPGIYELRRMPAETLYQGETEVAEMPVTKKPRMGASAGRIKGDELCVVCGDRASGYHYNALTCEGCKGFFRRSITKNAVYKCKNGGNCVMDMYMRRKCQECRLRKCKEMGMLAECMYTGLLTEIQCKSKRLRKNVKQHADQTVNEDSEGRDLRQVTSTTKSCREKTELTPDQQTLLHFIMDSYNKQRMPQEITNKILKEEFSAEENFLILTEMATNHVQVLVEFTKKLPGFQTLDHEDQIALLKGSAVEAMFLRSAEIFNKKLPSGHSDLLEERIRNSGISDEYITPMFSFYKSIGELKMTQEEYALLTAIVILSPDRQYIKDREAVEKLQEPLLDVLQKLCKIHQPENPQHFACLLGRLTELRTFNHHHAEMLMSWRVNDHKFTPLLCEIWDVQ
Chain of UniProt P11473 (P11473 whole entry, looked up): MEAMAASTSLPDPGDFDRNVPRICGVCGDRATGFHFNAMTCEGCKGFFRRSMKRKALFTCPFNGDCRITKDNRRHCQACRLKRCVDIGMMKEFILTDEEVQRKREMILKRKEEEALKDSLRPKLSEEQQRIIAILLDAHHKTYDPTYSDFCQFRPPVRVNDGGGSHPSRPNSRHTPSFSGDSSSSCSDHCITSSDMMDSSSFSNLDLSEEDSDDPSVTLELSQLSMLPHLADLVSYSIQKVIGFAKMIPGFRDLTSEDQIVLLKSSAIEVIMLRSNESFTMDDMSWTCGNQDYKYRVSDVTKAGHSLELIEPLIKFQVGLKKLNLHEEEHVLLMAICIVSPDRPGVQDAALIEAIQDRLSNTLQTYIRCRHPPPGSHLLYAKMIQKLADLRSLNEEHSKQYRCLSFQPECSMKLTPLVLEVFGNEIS

Compound: O=C(CCCN1CCC(O)(c2cccc(C(F)(F)F)c2)CC1)c1ccc(F)cc1
- Potency [1]: inconclusive
- activation [2]: inconclusive: -15.1%
- Potency [3]: inactive
- Potency [4]: inconclusive [cytotoxic, partial curve]
- viability change, negative = cytotoxic [5]: inconclusive: -41.4% [cytotoxic]
- Potency [6]: inactive

Compound: CC(C)CCOC(=O)c1ccccc1
- Potency [1]: inactive
- ratio activity, negative = inhibition [3]: inconclusive: 4.28%
- Potency [7]: inactive
- Potency [5]: inactive
- activity change, negative = inhibition [8]: inconclusive: 13.1%
- Potency [9]: inactive

Compound: CCCCN1C(=O)[C@@H]([C@H](O)C2CCCCC2)NC(=O)C12CCN(Cc1ccc(Oc3ccc(C(=O)O)cc3)cc1)CC2
- Potency [1]: active: 8.63 µM
- Potency [2]: inconclusive [rising, full curve]
- Potency [3]: inconclusive [rising, full curve, poor fit]
- Potency [10]: inconclusive
- Potency [11]: inconclusive [cytotoxic, partial curve, poor fit]
- Potency [12]: inconclusive [rising, full curve]
- Potency [5]: inactive
- viability change, negative = cytotoxic [13]: inconclusive: -35.3% [cytotoxic]

Compound: [Cl][Au]([Cl])[Cl]
- Potency [1]: inconclusive
- Potency [10]: inconclusive [falling, full curve]
- Potency [11]: active: 0.77 µM
- Potency [14]: inconclusive [cytotoxic, full curve]
- Potency [7]: inconclusive
- Potency [4]: active: 3.09 µM
- Potency [5]: active: 9.77 µM
- Potency [8]: inconclusive [rising, single point]
- Potency [13]: active: 2.75 µM
- activation [15]: inconclusive: 11.3%
- Potency [9]: inconclusive [rising, single point]
- Potency [6]: inconclusive [rising, full curve]

Compound: O=C(NO)C1(NS(=O)(=O)c2ccc(Oc3ccc(F)cc3)cc2)CCOCC1
- Potency [1]: inactive
- Potency [3]: inactive
- Potency [10]: inconclusive [rising, partial curve, poor fit]
- Potency [7]: inactive
- Potency [9]: inconclusive [inhibitor, partial curve]
- Potency [6]: inactive

Compound: CCC(=O)Nc1ccc(O)cc1
- Potency [1]: inactive
- Potency [3]: inactive
- Potency [4]: inactive
- Potency [12]: inactive
- Potency [6]: inactive

Compound: C=Cc1ccccn1
- Potency [1]: inactive
- Potency [3]: inactive
- Potency [10]: inactive

Compound: CCc1nn(C2CCCCC2)c2cc(C3(C#N)CCC(C(=O)O)CC3)ccc12 (centres undefined)
- Potency [1]: active: 24.3 µM
- Potency [2]: inconclusive [fluorescent, partial curve, poor fit]
- Potency [3]: inconclusive [rising, partial curve, poor fit]
- Potency [10]: active: 27.3 µM
- Potency [7]: inactive
- Potency [12]: inactive
- ratio activity, negative = inhibition [16]: inconclusive: -43.7%
- Potency [8]: inconclusive [inhibitor, single point]

Compound: CCO[C@@H]1O[C@H](C(COCc2ccccc2)OCc2ccccc2)[C@H](OCc2ccccc2)[C@H]1O (some centres undefined)
- Potency [1]: inactive
- ratio activity, negative = inhibition [3]: inconclusive: -25.4%
- Potency [10]: inconclusive
- Potency [4]: inconclusive [cytotoxic, single point]
- Potency [5]: inactive
- Potency [8]: inconclusive [full curve]
- Potency [13]: active: 21.1 µM

Compound: CN1CCC(=C2c3ccccc3CCc3sccc32)CC1
- Potency [1]: inconclusive [falling, partial curve, poor fit]
- Potency [3]: inactive
- Potency [17]: inconclusive [cytotoxic, single point]
- Potency [10]: inconclusive [rising, partial curve, poor fit]
- Potency [4]: inconclusive [cytotoxic, partial curve]
- Potency [5]: inconclusive [cytotoxic, partial curve, poor fit]
- activity change, negative = inhibition [8]: inconclusive: -30.2%
- Potency [13]: inconclusive [cytotoxic, partial curve]
- Potency [18]: inconclusive [falling, partial curve]

Compound: CC(C)CCCCCOC(=O)CCS
- Potency [1]: inactive
- Potency [2]: inactive
- Potency [3]: inactive
- activation [10]: inconclusive: -28.5%
